Laboratory results as given in patent publication US20250263409A1, “FGFR2 INHIBITOR COMPOUNDS” (ELI LILLY AND COMPANY, priority 2022, published 2025).
Some of these results come from one statement about several compounds together.

Assays:
human wild type FGFR1 = target: T1, human wild type FGFR1 (Homo sapiens, UniProt P11362); assay: FGFR1 cell-based assay (phospho-FGFR positive cells); settings: dox-inducible HEK293 cells; IC50 FGFR1 divided by IC50 FGFR2
T1 construct: expressed in transfected cells; host or cells: HEK293
T1 sequence (P11362 22-822): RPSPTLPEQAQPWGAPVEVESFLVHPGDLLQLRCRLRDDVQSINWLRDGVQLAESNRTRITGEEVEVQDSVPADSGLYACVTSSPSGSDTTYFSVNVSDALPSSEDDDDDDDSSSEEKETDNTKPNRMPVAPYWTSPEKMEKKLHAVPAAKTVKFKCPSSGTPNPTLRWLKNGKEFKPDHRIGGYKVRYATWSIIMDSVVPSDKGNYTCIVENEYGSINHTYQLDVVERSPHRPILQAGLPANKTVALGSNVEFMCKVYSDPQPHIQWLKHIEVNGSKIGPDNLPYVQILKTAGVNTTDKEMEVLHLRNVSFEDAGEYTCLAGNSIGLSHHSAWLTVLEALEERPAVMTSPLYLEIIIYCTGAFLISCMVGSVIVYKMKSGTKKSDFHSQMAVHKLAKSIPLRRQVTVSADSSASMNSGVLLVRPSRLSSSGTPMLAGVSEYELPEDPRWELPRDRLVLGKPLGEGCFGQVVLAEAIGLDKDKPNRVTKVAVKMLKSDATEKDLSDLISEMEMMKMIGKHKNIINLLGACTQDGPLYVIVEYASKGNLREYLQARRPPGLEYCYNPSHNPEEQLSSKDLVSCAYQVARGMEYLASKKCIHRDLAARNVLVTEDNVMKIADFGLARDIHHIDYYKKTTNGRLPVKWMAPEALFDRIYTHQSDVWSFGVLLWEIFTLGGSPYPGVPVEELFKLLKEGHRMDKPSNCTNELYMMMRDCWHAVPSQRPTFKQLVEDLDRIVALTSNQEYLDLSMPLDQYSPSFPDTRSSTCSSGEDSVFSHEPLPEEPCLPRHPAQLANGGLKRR

FGFR1 = target: T2, FGFR1 (Homo sapiens, UniProt P11362); assay: FGFR1 enzyme assay (KinEASE-TK HTRF); format: biochemical; settings: IC50 FGFR1 divided by IC50 FGFR2
T2 construct: purchased ThermoFisher Scientific PR4660A
T2 sequence (P11362 22-822): as above

FGFR2 = target: T3, FGFR2 (Homo sapiens, UniProt P21802); assay: FGFR2 enzyme assay (KinEASE-TK HTRF); format: biochemical; settings: at Km ATP; 15 min pre-incubation; 30 min at 30 °C
T3 construct: purchased ThermoFisher Scientific PR5332A
T3 sequence (P21802 22-821): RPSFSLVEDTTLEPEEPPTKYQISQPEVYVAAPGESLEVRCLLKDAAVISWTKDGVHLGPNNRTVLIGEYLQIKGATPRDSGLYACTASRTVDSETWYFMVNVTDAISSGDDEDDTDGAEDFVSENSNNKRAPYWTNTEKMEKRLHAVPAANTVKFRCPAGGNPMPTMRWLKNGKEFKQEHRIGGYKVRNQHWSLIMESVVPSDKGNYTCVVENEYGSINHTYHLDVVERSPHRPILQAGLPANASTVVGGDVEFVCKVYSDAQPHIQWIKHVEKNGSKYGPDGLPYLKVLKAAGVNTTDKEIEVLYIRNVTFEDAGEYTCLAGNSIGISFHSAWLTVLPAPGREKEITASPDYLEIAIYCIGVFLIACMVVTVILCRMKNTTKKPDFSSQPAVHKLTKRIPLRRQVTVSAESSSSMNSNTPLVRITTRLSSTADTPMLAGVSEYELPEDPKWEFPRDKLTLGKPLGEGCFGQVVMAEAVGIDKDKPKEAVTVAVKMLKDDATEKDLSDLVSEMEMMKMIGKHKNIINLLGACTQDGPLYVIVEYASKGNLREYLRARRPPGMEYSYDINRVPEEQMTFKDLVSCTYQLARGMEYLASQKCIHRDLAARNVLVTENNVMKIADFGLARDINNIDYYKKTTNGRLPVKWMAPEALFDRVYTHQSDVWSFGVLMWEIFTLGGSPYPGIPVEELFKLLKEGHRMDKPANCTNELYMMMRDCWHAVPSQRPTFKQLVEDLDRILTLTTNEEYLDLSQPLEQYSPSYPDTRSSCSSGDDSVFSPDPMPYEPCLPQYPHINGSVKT

Structure (SMILES) | fold more selective for FGFR2 than for FGFR1, cell-based assays (human wild type FGFR1) | fold more selective for FGFR2 than for FGFR1, enzyme assays (FGFR1) | IC50 (FGFR2) [nM]
Cc1c(-c2cc(OCC(O)c3ccc(F)cn3)c3c(C#N)cnn3c2)nnn1C1CCN(C2COC2)CC1 (single isomer, unassigned; isomer 1) [Example 13, 4-[2-(5-Fluoro-2-pyridyl)-2-hydroxy-ethoxy]-6-[5-methyl-1-[1-(oxetan-3-yl)-4-piperidyl]triazol-4-yl]pyrazolo[1,5-a]pyridine-3-carbonitrile, Isomer 1] | at least 5 fold | at least 3 fold | –
Cc1c(-c2cc(OC(C)c3ccn(C(F)(F)F)n3)c3c(C#N)cnn3c2)nnn1C1CCN(C2COC2)CC1 (single isomer, unassigned; isomer 1) [Example 38, 6-[5-Methyl-1-[1-(oxetan-3-yl)-4-piperidyl]triazol-4-yl]-4-[1-[1-(trifluoromethyl)pyrazol-3-yl]ethoxy] pyrazolo[1,5-a]pyridine-3-carbonitrile, Isomer 1] | at least 5 fold | at least 3 fold | –
Cc1c(-c2cc(OC(C)c3csc(C4CC4)n3)c3c(C#N)cnn3c2)nnn1C1CCN(C2COC2)CC1 (single isomer, unassigned; isomer 1) [Example 45, 4-[1-(2- Cyclopropylthiazol-4-yl)ethoxy]-6-[5-methyl-1-[1-(oxetan-3-yl)-4-piperidyl]triazol-4-yl]pyrazolo [1,5-a]pyridine-3-carbonitrile, Isomer 1] | at least 5 fold | at least 3 fold | –
Cc1c(-c2cc(OCC(C)(O)c3ncc(F)cc3F)c3c(F)cnn3c2)nnn1C1CCN(C2COC2)CC1 (single isomer, unassigned; isomer 1) [Example 54, 2-(3,5-Difluoro-2-pyridyl)-1-[3-fluoro-6-[5-methyl-1-[1-(oxetan-3-yl)-4-piperidyl]triazol-4-yl]pyrazolo [1,5-a]pyridin-4-yl]oxy-propan-2-ol, Isomer 1] | at least 5 fold | at least 3 fold | –
Cc1c(-c2cc(OCC(C)(O)c3ccc(F)cn3)c3c(Cl)cnn3c2)nnn1[C@@H]1CCN(C2COC2)C[C@H]1F (single isomer, unassigned; isomer 1) [Example 58] | at least 5 fold | at least 3 fold | –
Cc1c(-c2cc(OCC(O)(c3ccc(F)cn3)C3CC3)c3c(Cl)cnn3c2)nnn1C1CCN(C2COC2)CC1 (single isomer, unassigned; isomer 1) [Example 90, 2-[3-Chloro-6-[5-methyl-1-[1-(oxetan-3-yl)-4-piperidyl]triazol-4-yl]pyrazolo[1,5-a]pyridine-4-yl]oxy-1-cyclopropyl-1-(5-fluoro-2-pyridyl)ethanol, Isomer 1] | at least 5 fold | at least 3 fold | –
Cc1cnn2cc(-c3nnn(C4CCN(C5COC5)CC4)c3C)cc(OCC(C)(O)c3ccc(F)cn3)c12 (single isomer, unassigned; isomer 2) [Example 59, 2-(5-Fluoro-2-pyridyl)-1-[3-methyl-6-[5-methyl-1-[1-(oxetan-3-yl)-4-piperidyl]triazol-4-yl]pyrazolo [1,5-a]pyridin-4-yl]oxy-propan-2-ol, Isomer 2] | at least 5 fold | at least 3 fold | –
Cc1c(-c2cc(OCC(O)c3ncc(F)cc3F)c3c(Cl)cnn3c2)nnn1C1CN(C2COC2)C1 (single isomer, unassigned; isomer 2) [Example 75, 2-[3-Chloro-6-[5-methyl-1-[1-(oxetan-3-yl)azetidin-3-yl]triazol-4-yl]pyrazolo[1,5-a]pyridin-4-yl]oxy-1-(3,5-difluoro-2-pyridyl)ethanol, Isomer 2] | – | at least 3 fold | –
Cc1c(-c2cc(OCC(O)C3CCCC3)c3c(C#N)cnn3c2)nnn1C1CCN(C2COC2)CC1 (single isomer, unassigned; isomer 2) [Example 84, 4-(2-Cyclopentyl-2-hydroxy-ethoxy)-6-[5-methyl-1-[1-(oxetan-3-yl)-4-piperidyl]triazol-4-yl]pyrazolo[1,5-a]pyridine-3-carbonitrile, Isomer 2] | at least 5 fold | at least 3 fold | –
Cc1c(-c2cc(OCC3(c4ccc(F)cn4)CC3)c3c(C#N)cnn3c2)nnn1C1CCN(C2COC2)CC1 [Example 4, 4-[[1-(5-Fluoro-2-pyridyl)cyclopropyl]methoxy]-6-[5-methyl-1-[1-(oxetan-3-yl)-4-piperidyl]triazol-4-yl]pyrazolo[1,5-a]pyridine-3-carbonitrile] | – | at least 3 fold | –
Cc1c(-c2cc(O[C@H](C)c3ccccn3)c3c(C#N)cnn3c2)cnn1C1CC2(C1)CN(C1COC1)C2 [Example 74, 6-[5-Methyl-1-[2-(oxetan-3-yl)-2-azaspiro[3.3]heptan-6-yl]pyrazol-4-yl]-4-[(1R)-1-(2-pyridyl)ethoxy]pyrazolo[1,5-a]pyridine-3-carbonitrile] | – | – | < 200
Cc1c(-c2cc(O[C@H](C)c3ccccn3)c3c(C#N)cnn3c2)cnn1C1CC2(CCN(C3COC3)CC2)C1 [Example 93, 6-[5-Methyl-1-[7-(oxetan-3-yl)-7-azaspiro[3.5]nonan-2-yl]pyrazol-4-yl]-4-[(1R)-1-(2-pyridyl)ethoxy]pyrazolo[1,5-a]pyridine-3-carbonitrile] | at least 5 fold | at least 3 fold | –

Now from value to compound:

fold more selective for FGFR2 than for FGFR1, cell-based assays (human wild type FGFR1) | fold more selective for FGFR2 than for FGFR1, enzyme assays (FGFR1) | IC50 (FGFR2) [nM] | Structure (SMILES)
at least 5 fold | at least 3 fold | – | Cc1c(-c2cc(OC(C)c3cncc(C(F)(F)F)n3)c3c(C#N)cnn3c2)nnn1C1CCN(C2COC2)CC1 (single isomer, unassigned; isomer 1) [Example 24, 6-[5-Methyl-1-[1-(oxetan-3-yl)-4-piperidyl]triazol-4-yl]-4-[1-[6-(trifluoromethyl)pyrazin-2-yl]ethoxy] pyrazolo[1,5-a]pyridine-3-carbonitrile, Isomer 1]
at least 5 fold | at least 3 fold | – | Cc1c(-c2cc(OCC(c3ccc(F)cn3)N3CCCC3)c3c(C#N)cnn3c2)nnn1C1CCN(C2COC2)CC1 (single isomer, unassigned; isomer 1) [Example 26, 4-[2-(5-Fluoro-2-pyridyl)-2-pyrrolidin-1-yl-ethoxy]-6-[5-methyl-1-[1-(oxetan-3-yl)-4-piperidyl]triazol-4-yl]pyrazolo[1,5-a]pyridine-3-carbonitrile, Isomer 1]
at least 5 fold | at least 3 fold | – | Cc1c(-c2cc(OC(C)c3cnn(C(C)C)n3)c3c(C#N)cnn3c2)nnn1C1CCN(C2COC2)CC1 (single isomer, unassigned; isomer 1) [Example 35, 4-[1-(2-Isopropyltriazol-4-yl)ethoxy]-6-[5-methyl-1-[1-(oxetan-3-yl)-4-piperidyl]triazol-4-yl]pyrazolo [1,5-a]pyridine-3-carbonitrile, Isomer 1]
– | – | < 200 | Cc1c(-c2cc(OC(C)c3cncc(C(F)(F)F)c3)c3c(C#N)cnn3c2)nnn1C1CN(C2CCOCC2)C1 (single isomer, unassigned; isomer 2) [Example 3, 6-[5-Methyl-1-(1-tetrahydropyran-4-ylazetidin-3-yl)triazol-4-yl]-4-[1-[5-(trifluoromethyl)-3-pyridyl]ethoxy]pyrazolo [1,5-a]pyridine-3-carbonitrile, Isomer 2]
– | – | < 200 | COC(COc1cc(-c2nnn([C@@H]3CCN(C4COC4)C[C@@H]3F)c2C)cn2ncc(Cl)c12)c1ncc(F)cn1 (single isomer, unassigned; isomer 2) [Example 60]
– | at least 3 fold | – | Cc1c(-c2cc(OCC(O)c3ncc(F)cc3Cl)c3c(C#N)cnn3c2)nnn1C1CCN(C2COC2)CC1 (single isomer, unassigned; isomer 2) [Example 77, 4-[2-(3-Chloro-5-fluoro-2-pyridyl)-2-hydroxy-ethoxy]-6-[5-methyl-1-[1-(oxetan-3-yl)-4-piperidyl]triazol-4-yl]pyrazolo[1,5-a]pyridine-3-carbonitrile, Isomer 2]
– | – | < 200 | Cc1c(-c2cc(OCC(C)(C)c3ccccn3)c3c(C#N)cnn3c2)nnn1C1CCN(C2COC2)CC1 [Example 5, 6-[5-Methyl-1-[1-(oxetan-3-yl)-4-piperidyl]triazol-4-yl]-4-[2-methyl-2-(2-pyridyl)propoxy] pyrazolo[1,5-a] pyridine-3-carbonitrile]
– | – | < 200 | Cc1c(-c2cc(O[C@H](C)c3ccccn3)c3c(C#N)cnn3c2)cnn1[C@H]1CCCN(C2COC2)C1 [Example 8, 6-[5-Methyl-1-[(3S)-1-(oxetan-3-yl)-3-piperidyl]pyrazol-4-yl]-4-[(1R)-1-(2-pyridyl)ethoxy]pyrazolo [1,5-a]pyridine-3-carbonitrile]
– | at least 3 fold | – | Cc1c(-c2cc(O[C@H](C)c3ccccn3)c3c(C#N)cnn3c2)cnn1C1CCCN(C2COC2)CC1 (stereo partly drawn) [Example 95, 6-[5-Methyl-1-[1-(oxetan-3-yl)azepan-4-yl]pyrazol-4-yl]-4-[(1R)-1-(2-pyridyl)ethoxy] pyrazolo[1,5-a] pyridine-3-carbonitrile]
– | at least 3 fold | – | Cc1nn(C2CCCN(C3COC3)CC2)cc1-c1cc(O[C@H](C)c2ccccn2)c2c(C#N)cnn2c1 (stereo partly drawn) [Example 97, 6-[3-Methyl-1-[1-(oxetan-3-yl)azepan-4-yl]pyrazol-4-yl]-4-[(1R)-1-(2-pyridyl)ethoxy] pyrazolo[1,5-a] pyridine-3-carbonitrile]
